Source: PubChem BioAssay AID2147 (National Center for Advancing Translational Sciences (NCATS), 2009)
The whole screen tested about 230,000 compounds, of which about 3,600 (1.6%) were called active. This list was built around the results that the source calls inconclusive (neither active nor inactive); the mix of calls is not that of the screen. Calls follow the shape of the dose curve; as a rule, active = well fitted inhibition curve with a large enough effect (not every such curve was filed as active); inconclusive = small, poorly fitted or top-dose-only effect, or another doubt; inactive = no such curve, though single readings can be large or run the other way. A potency beside an inconclusive call is a rough fit, not a confirmed value.

biological target: Lysine-specific demethylase 4E (Homo sapiens) (UniProt B2RXH2); assay: qHTS Assay for Inhibitors of Human Jumonji Domain Containing 2E (JMJD2E); conditions: JMJD2E catalytic domain, FDH-coupled NADH fluorescence (FDH is formaldehyde dehydrogenase); series mostly up to 57.1 µM; activity change, negative = inhibition: at the top concentration
Chain of UniProt B2RXH2 (B2RXH2 whole entry, looked up, the tested form may be a part): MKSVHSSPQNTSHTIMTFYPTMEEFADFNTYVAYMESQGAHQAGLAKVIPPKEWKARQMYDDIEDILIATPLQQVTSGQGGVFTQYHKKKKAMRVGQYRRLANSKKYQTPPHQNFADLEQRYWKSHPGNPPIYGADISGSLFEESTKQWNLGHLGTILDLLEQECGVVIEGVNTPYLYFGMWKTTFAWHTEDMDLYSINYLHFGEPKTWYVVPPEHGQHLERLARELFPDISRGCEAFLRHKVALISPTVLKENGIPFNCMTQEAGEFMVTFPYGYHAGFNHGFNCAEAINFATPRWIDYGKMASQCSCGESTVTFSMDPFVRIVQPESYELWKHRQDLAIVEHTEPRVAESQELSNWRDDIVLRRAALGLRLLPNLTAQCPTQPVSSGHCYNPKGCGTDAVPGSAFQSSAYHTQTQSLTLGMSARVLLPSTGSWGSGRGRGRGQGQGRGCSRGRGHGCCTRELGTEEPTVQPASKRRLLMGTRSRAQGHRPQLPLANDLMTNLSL
Also: nearly all actives have a fitted effect of over 50% in size.
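For activity change, negative = inhibition in this document: 0% = wells with enzyme and -100% = buffer wells without enzyme.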
Potency is read from the fitted curve at half-maximal effect; tags tell the direction and shape of the fitted curve.

SMILES	activity change, negative = inhibition	Potency
O=C(O)CCCCCNC(=O)/C=C/c1ccco1	inactive: -1.82%	
CCOC(=O)C1CCCN(C(=O)CCc2ccccc2)C1 (stereo unspecified)	inactive: 1.97%	
Cc1oc2cc(O)ccc2c(=O)c1-c1cnn(-c2ccccc2)c1		inconclusive: 14.1 µM [inhibitor, partial curve]
Cc1ccc(Cn2c(SC(C)C(N)=O)nc3ccccc3c2=O)cc1 (stereo unspecified)		inconclusive: 0.708 µM [inhibitor, single point]
CC[C@H](C)[C@H](NC(N)=O)C(=O)Nc1ccc(C)cc1		inconclusive: 39.8 µM [inhibitor, single point]
Cc1ccc(C(=O)NC(=S)Nc2cccc3nsnc23)cc1	inactive: 21.7%	
CCNC(=O)c1ccccc1NC(=O)c1cccc(S(=O)(=O)N2CCC(C)CC2)c1		inconclusive: 39.8 µM [inhibitor, single point]
Cc1nc2ncccn2c1-c1csc(Nc2ccc(O)cc2)n1		inconclusive: 35.5 µM [inhibitor, single point]
CC(C)(C)C1CCc2c(sc(N)c2C(N)=O)C1 (stereo unspecified)		inconclusive: 31.6 µM [inhibitor, partial curve]
Cc1snc(SCC(=O)c2ccc([N+](=O)[O-])cc2)c1C#N		active: 4.47 µM
COc1ccc(C(=O)c2ccccc2)c(OCC(=O)NC2CC2)c1		inconclusive: 39.8 µM [inhibitor, single point]
Cc1ccc(-n2nc3ccc(NC(=O)/C=C/c4ccco4)cc3n2)cc1C		inconclusive: 25.1 µM [inhibitor, single point]
O=C(O)c1ccc(S(=O)(=O)c2ccc3c(c2)C(=O)N(Cc2ccco2)C3=O)cc1	inactive: 2.58%	
CCCN1C(=O)c2ccccc2NC1c1cc(OC)c(OC)c(OC)c1 (stereo unspecified)		inconclusive: 28.2 µM [inhibitor, partial curve]
Cc1ccccc1-n1c(C)nnc1SCc1cc(=O)oc2ccc3ccccc3c12		inconclusive: 35.5 µM [inhibitor, single point]
CCOC(=O)N1CCC(NC(=O)c2cc3ccccn3n2)CC1		inconclusive: 35.5 µM [inhibitor, single point]
CCC(C(=O)N1CCc2cc(OC)c(OC)cc2C1)c1ccccc1 (stereo unspecified)		inconclusive: 39.8 µM [inhibitor, single point]
COc1cccc(N2C(=O)CC(N3CCc4ccccc4C3)C2=O)c1 (stereo unspecified)	inactive: -5.44%	
O=C(NCc1ccco1)Nc1cccc([N+](=O)[O-])c1	inactive: 1.09%	
Cc1ccc(-c2cc(C(=O)OCC(=O)N(C)C3CCS(=O)(=O)C3)c3ccccc3n2)c(C)c1 (stereo unspecified)		inconclusive: 31.6 µM [inhibitor, single point]
N#Cc1cc2c(=O)n3ccccc3nc2n(CCN2CCOCC2)c1=O		inconclusive: 12.6 µM [inhibitor, partial curve]
O=C1Nc2cc(Cl)cnc2N2CCCC12 (stereo unspecified)		inconclusive: 28.2 µM [inhibitor, single point]
COC(=O)CCSc1cc([N+](=O)[O-])cc2c1c(C1OCCO1)nn2-c1ccccc1		inconclusive: 25.1 µM [inhibitor, single point]
CC(C)CNC(=O)COC(=O)c1n[nH]c2ccccc12		inconclusive: 28.2 µM [inhibitor, partial curve]

SMILES	activity change, negative = inhibition	Potency
N#C/C(C(=O)NCc1ccccc1)=C1/N=C(NC(=O)c2ccco2)c2ccccc21		inconclusive: 35.5 µM [inhibitor, single point]
O=C(c1cnn2c(C(F)(F)F)cc(-c3ccccc3)nc12)N1CCCCC1c1cccnc1 (stereo unspecified)		inconclusive: 39.8 µM [inhibitor, single point]
O=[N+]([O-])c1ccc(-c2ccc(S(=O)(=O)NCCN3CCCC3)cc2)cc1		inconclusive: 28.2 µM [inhibitor, single point]
O=C(Cn1cnc2c(cnn2-c2ccc(Cl)cc2)c1=O)NCC1CCCO1 (stereo unspecified)		inconclusive: 39.8 µM [inhibitor, single point]
Fc1ccc(C[n+]2csc3ccccc32)cc1		inconclusive: 39.8 µM [inhibitor, single point]
COc1ccc(OC)c(N(CC(=O)Nc2cccnc2)S(=O)(=O)c2ccc(OC)c(OC)c2)c1	inactive: 1.15%	
Clc1ccc(-n2ncc3c(NCC4CCCO4)ncnc32)cc1 (stereo unspecified)		inconclusive: 25.1 µM [inhibitor, partial curve]
Cc1ccc2c(c1)COc1c3ccc(C(=O)N4CCCCC4)cc3nn1-2		inconclusive: 35.5 µM [inhibitor, single point]
Cc1nn(C)c(Oc2ccccc2)c1CCNS(=O)(=O)c1ccc(Cl)cc1	inactive: -1.37%	
CCCCCn1c(=O)c(C(=O)c2ccccc2)nc2ccccc21	inactive: -6.42%	
Cc1cccc(C=Nc2ccc3c4c(cccc24)CC3)c1O		inconclusive: 15.8 µM [inhibitor, partial curve]
O=C1CC(NCc2ccc3c(c2)OCO3)C(=O)N1CCc1ccccc1 (stereo unspecified)	inactive: 6.33%	
CCCn1c(-c2ccc(F)cc2)nc2c(NCCCN(CCO)CCO)nc(C)nc21		inconclusive: 31.6 µM [inhibitor, partial curve]
COc1ccc(CCC(C)NC2C3CC4CC(C3)CC2C4)cc1 (stereo unspecified)	inactive: -0.628%	
Cc1nn(C(C)C)c(C)c1CN1CCCC(C(=O)c2cccc(OC(C)C)c2)C1 (stereo unspecified)		inconclusive: 39.8 µM [inhibitor, single point]
CC(C)(O)C1Cc2cc(/C=C/C(=O)O)c(O)cc2O1 (stereo unspecified)		inconclusive: 39.8 µM [inhibitor, single point]
O=C(Nc1cnn(Cc2ccccc2)c1)c1cc2nc(-c3ccco3)cc(C(F)(F)F)n2n1		inconclusive: 39.8 µM [inhibitor, single point]
CC(C)NC(=O)c1onc(CSc2ccc(C(C)C)cc2)c1C(=O)O	inactive: 8.34%	
Nc1ccccc1C(=O)NNC1=C(C(=O)C(F)(F)F)CCC1		inconclusive: 39.8 µM [inhibitor, single point]
COCCNc1cc(C)nc2c(-c3ccccc3OC)c(C)nn12		inconclusive: 39.8 µM [inhibitor, single point]
Cc1ccc(S(=O)(=O)c2c[nH]c3cc4c(cc3c2=O)OCO4)cc1		inconclusive: 35.5 µM [inhibitor, single point]
NS(=O)(=O)c1ccc(CCNc2nc3c(-c4cccc(F)c4)nnn3c3ccccc23)cc1		inconclusive: 28.2 µM [inhibitor, partial curve]
N#Cc1ccc(/C=C\c2nccc3c2[nH]c2ccccc23)cc1		inconclusive: 3.16 µM [inhibitor, full curve]
CCOc1ccc2[nH]c(C)c(CN(C)C)c(=O)c2c1		inconclusive: 22.4 µM [inhibitor, partial curve]

SMILES	activity change, negative = inhibition	Potency
Cc1sc(NC(=O)c2sc3nc4c(C)cccc4cc3c2N)c(C#N)c1C		inconclusive: 25.1 µM [inhibitor, partial curve]
CCSC1=C(C#N)C(c2ccc(OC)c(OC)c2)CC(=O)N1 (stereo unspecified)	inactive: 12.6%	
Clc1ccc2nc(CN3CCCCCC3)cn2c1		inconclusive: 35.5 µM [inhibitor, single point]
COc1ccccc1C(=O)Nc1onc(C)c1C#N	inactive: 2.16%	
COc1cccc(NC(=S)/C(=C(\[O-])c2ccc(C)c([N+](=O)[O-])c2)[n+]2ccccc2)c1	inactive: -0.836%	
COc1ccc(-c2cc(C(F)(F)F)nc(SCCC(=O)N3CCN4CCCC4C3)n2)cc1 (stereo unspecified)		inconclusive: 35.5 µM [inhibitor, single point]
O=c1nc(-c2ccccc2)n(-c2ccc(Cl)cc2)[nH]1		inconclusive: 28.2 µM [inhibitor, partial curve]
COc1ccc(-n2c(=S)[nH]c3cc(C(=O)NCc4ccco4)ccc3c2=O)c(OC)c1	inactive: 1.09%	
COc1ccc(N2C(=O)CC(n3cnc4ccccc43)C2=O)cc1 (stereo unspecified)	inactive: 0.662%	
COC(=O)c1nn(-c2ccc(OC)cc2)c(=O)c2c(N)sc(C)c12	inactive: 7.38%	
O=C1/C(=C\c2ccccn2)SC(=S)N1c1ccc(S(=O)(=O)Nc2nccs2)cc1	inactive: -17.4%	
COc1ccc2cc(C(=O)O)ccc2c1		inconclusive: 39.8 µM [inhibitor, single point]
Cc1ccsc1/C=N/n1c(-c2cc(-c3ccccc3)n[nH]2)n[nH]c1=S	inactive: 4.29%	
COc1cc(/C=N/NC(=O)c2ccc(C)nc2)cc([N+](=O)[O-])c1O		inconclusive: 39.8 µM [inhibitor, single point]
COc1ccc(CCn2c(=S)[nH]c3cc(C(=O)N4CCOCC4)ccc3c2=O)cc1OC	inactive: -5.08%	
O=C1C=C(NCCOC23CC4CC(CC(C4)C2)C3)C2(CCCCC2)O1	inactive: 2.37%	
O=C(O)c1cccc(-n2cccc2/C=N/O)c1	inactive: -0.245%	
COc1ccc(C(CC(=O)N2CCCC(C)C2)c2c(OC)cc(OC)c3c(-c4ccccc4)cc(=O)oc23)cc1 (stereo unspecified)		inconclusive: 35.5 µM [inhibitor, single point]
Cc1cc(C)c2c(=O)n(CC(=O)NCCCN3CCOCC3)sc2n1		inconclusive: 17.8 µM [inhibitor, partial curve]
Clc1ccc(-c2nnc(Sc3nc4ccccc4o3)c3ccccc23)cc1	inactive: 5.76%	
O=C(NC1CCCCC1)N(CCN1CCOCC1)Cc1cc2cc3c(cc2[nH]c1=O)OCCO3		inconclusive: 28.2 µM [inhibitor, partial curve]
O=C(Nc1nc2c(ccc3ccccc32)s1)c1ccco1		inconclusive: 35.5 µM [inhibitor, partial curve]
CCC(Sc1ccc2nnc(-c3ccc(OC)c(OC)c3)n2n1)C(=O)O (stereo unspecified)		inconclusive: 39.8 µM [inhibitor, single point]
